{
  "source": "paper PMC4336329",
  "about": "(PLoS ONE, 2015)",
  "note": "Hit rate of the full screen: of about 310,000 compounds, about 2,200 (0.71%) showed an effect of 50% or more. Effects have a minus sign here. This is one part of the list.",
  "data": [
    {"molecular_target": "human ether-à-go-go-related gene (hERG) potassium channel (human, UniProt Q12809)", "sequence (Q12809 whole entry, looked up)": "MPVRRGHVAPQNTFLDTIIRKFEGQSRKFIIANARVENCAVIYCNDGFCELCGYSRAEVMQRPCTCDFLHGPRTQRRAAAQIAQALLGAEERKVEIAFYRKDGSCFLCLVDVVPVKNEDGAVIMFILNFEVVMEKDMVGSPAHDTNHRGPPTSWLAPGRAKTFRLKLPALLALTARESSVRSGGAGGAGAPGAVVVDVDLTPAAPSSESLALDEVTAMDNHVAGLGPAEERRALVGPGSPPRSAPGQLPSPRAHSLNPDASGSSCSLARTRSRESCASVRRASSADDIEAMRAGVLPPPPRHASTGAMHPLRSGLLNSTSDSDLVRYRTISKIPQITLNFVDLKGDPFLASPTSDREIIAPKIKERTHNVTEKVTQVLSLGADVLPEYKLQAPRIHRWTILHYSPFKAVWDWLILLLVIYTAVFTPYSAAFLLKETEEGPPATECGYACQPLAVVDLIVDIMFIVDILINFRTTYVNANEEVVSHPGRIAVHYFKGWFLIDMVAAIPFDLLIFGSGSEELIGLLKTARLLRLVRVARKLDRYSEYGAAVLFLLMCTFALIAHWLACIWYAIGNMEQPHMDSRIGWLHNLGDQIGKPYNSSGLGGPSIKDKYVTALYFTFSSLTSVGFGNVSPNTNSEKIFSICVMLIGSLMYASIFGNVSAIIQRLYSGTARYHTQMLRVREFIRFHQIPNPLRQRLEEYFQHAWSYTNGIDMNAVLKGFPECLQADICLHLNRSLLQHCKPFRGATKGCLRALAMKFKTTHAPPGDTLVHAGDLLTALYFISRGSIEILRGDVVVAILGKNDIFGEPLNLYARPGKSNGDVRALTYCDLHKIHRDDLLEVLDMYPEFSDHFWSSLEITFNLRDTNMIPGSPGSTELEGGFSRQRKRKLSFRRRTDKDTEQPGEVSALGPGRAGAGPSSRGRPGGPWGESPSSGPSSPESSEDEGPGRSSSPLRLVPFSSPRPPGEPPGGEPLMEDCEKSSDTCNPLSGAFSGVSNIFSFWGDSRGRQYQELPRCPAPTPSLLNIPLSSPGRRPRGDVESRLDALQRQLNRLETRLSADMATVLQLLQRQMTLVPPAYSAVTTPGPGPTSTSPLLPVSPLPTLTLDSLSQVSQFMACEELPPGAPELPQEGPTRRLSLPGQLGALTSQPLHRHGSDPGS", "experiment": "primary screen, population patch clamp on CHO cells stably expressing hERG", "units": {"hERG current change (%, negative = inhibition) at 1uM": "%"}, "values": [
      {"smiles": "O=C(NC1CONC1=O)OCC(Cl)(Cl)Cl", "note": "(stereo not drawn)", "hERG current change (%, negative = inhibition) at 1uM": 14.3},
      {"smiles": "CCN1C(=O)[C@H]2[C@@H](c3ccc(C)cc3)N3C(=O)N(c4ccccc4)C(=O)[C@@]3(Cc3ccc(Cl)cc3)[C@H]2C1=O", "hERG current change (%, negative = inhibition) at 1uM": 3.47},
      {"smiles": "COc1ccc2[nH]cc(CCN3C(=O)c4ccc(C(=O)O)cc4C3=O)c2c1", "hERG current change (%, negative = inhibition) at 1uM": 14.1},
      {"smiles": "CCN(CC)CCNC(=O)C1CCN(S(=O)(=O)N2CCCCC2)CC1", "hERG current change (%, negative = inhibition) at 1uM": 4.23},
      {"smiles": "C=CCNC(=O)NC(=O)COC(=O)/C(C#N)=C/c1cc(C)n(CC(C)C)c1C", "hERG current change (%, negative = inhibition) at 1uM": -4.08},
      {"smiles": "Cc1nnc(SCc2nc3scc(-c4ccccc4)c3c(=O)[nH]2)s1", "hERG current change (%, negative = inhibition) at 1uM": 9.19},
      {"smiles": "CCOC(=O)Cc1csc(NC(=O)Cc2ccc(Cl)cc2)n1", "hERG current change (%, negative = inhibition) at 1uM": 4.82},
      {"smiles": "O=C(COC(=O)c1ccccc1)NCCC1=CCCCC1", "hERG current change (%, negative = inhibition) at 1uM": 9.18},
      {"smiles": "Cc1ccc(C(=O)Nc2ccc(-c3csc(C)n3)cc2)cc1", "hERG current change (%, negative = inhibition) at 1uM": 9.75},
      {"smiles": "COc1ccc(S(=O)(=O)Nc2ccccc2N2CCOCC2)cc1OC", "hERG current change (%, negative = inhibition) at 1uM": 13.1},
      {"smiles": "Cc1cc(C)c(S(=O)(=O)N(C)CC(=O)NCc2ccncc2)c(C)c1", "hERG current change (%, negative = inhibition) at 1uM": 5.74},
      {"smiles": "CC(=O)c1cn(C)c(=O)[nH]c1=O", "hERG current change (%, negative = inhibition) at 1uM": 14.4},
      {"smiles": "CCOC(=O)N1CCN(Cc2cn[nH]c2-c2ccc(-c3ccccc3)cc2)CC1", "hERG current change (%, negative = inhibition) at 1uM": 7.03},
      {"smiles": "CCc1nnc(NC(=O)CSc2nnc(-c3cc4ccccc4cc3O)n2CCOC)s1", "hERG current change (%, negative = inhibition) at 1uM": 2.7},
      {"smiles": "Cc1cccc(Cc2c(C)nc3c(C(=O)NCc4ccco4)cnn3c2C)c1", "hERG current change (%, negative = inhibition) at 1uM": -7.73},
      {"smiles": "Cc1cccc(NC(=O)c2ccc3c(c2)CCN3S(C)(=O)=O)c1C", "hERG current change (%, negative = inhibition) at 1uM": 18.4},
      {"smiles": "CN1CCN(C(=O)CSc2nc(-c3ccncc3)ccc2C#N)CC1", "hERG current change (%, negative = inhibition) at 1uM": -3.13},
      {"smiles": "O=C(CSc1ncccn1)NC(=O)NCc1ccccc1", "hERG current change (%, negative = inhibition) at 1uM": 24.7},
      {"smiles": "O=C(NCCc1ccccc1)C1CCCN(S(=O)(=O)c2cccnc2)C1", "note": "(stereo not drawn)", "hERG current change (%, negative = inhibition) at 1uM": 9.82},
      {"smiles": "COC(=O)C1=C(C)N(C)C(=O)NC1c1c(O)ccc2ccccc12", "note": "(stereo not drawn)", "hERG current change (%, negative = inhibition) at 1uM": 6.78},
      {"smiles": "Cc1noc(C)c1S(=O)(=O)N1CCC(C(=O)NC2CCCc3ccccc32)CC1", "note": "(stereo not drawn)", "hERG current change (%, negative = inhibition) at 1uM": 9.97},
      {"smiles": "O=C(CNC(=O)c1ccccc1F)Nc1ccccc1C(F)(F)F", "hERG current change (%, negative = inhibition) at 1uM": 11.8},
      {"smiles": "CCn1c(SCC(=O)Nc2nncs2)nnc1C(C)NC(=O)c1ccccc1Br", "note": "(stereo not drawn)", "hERG current change (%, negative = inhibition) at 1uM": 19.3},
      {"smiles": "Cc1cc(NCCCN2CCOCC2)n2c(nc3ccccc32)c1C#N", "hERG current change (%, negative = inhibition) at 1uM": -0.298}
    ]}
  ]
}
